Among the data in PMC10726135 are binding signal (log2 normalized intensity) values, retold here.

The other results are listed elsewhere or left out. At the low end of the ranking, values are background and their order means little. Measured with an extract: partners may take part in the binding.

This assay has as its target T1, HNF4alpha2 (COS-7 nuclear extract) (UniProt P41235).
T1 sequence: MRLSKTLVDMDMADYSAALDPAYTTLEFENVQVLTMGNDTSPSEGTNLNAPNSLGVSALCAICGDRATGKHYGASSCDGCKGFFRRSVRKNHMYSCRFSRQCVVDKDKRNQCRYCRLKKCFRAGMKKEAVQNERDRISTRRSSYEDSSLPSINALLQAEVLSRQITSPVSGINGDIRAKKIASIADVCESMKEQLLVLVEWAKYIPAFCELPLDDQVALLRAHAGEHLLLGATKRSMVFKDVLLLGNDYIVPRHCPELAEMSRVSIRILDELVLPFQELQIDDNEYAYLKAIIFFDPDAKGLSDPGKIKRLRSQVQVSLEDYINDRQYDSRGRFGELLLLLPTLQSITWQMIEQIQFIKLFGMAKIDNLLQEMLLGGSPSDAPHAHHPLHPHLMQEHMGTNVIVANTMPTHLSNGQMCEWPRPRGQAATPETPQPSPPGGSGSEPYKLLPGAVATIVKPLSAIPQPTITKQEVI
The assay is described as follows: protein-binding microarray. The conditions noted are these: COS-7 nuclear extract on double-stranded Agilent 4x180k PBM; binding buffer, salt, pH and temperature not given; high values mean tight binding; double strand, one strand shown; sequences stand for … in …GCCTAGGGAGATTAGAGTATCGGTCGA
Consider ATGTGAAGCTTGCTGATTACATAGGAGGCT, for which the binding signal (log2 normalized intensity) is -1.19. On to GGTTATGCAGAGCTTAGTTTGCCACGGTCA, for which the binding signal (log2 normalized intensity) was found to be 1.32. With TAGAATTTGAACTATGGTCATCTGAGGGAA the figure was 1.32; with AGAGAGAGGGAGAGTGGCCTTTGGAATCAA, 3.05.

Turning to GATGGAACAGTGTAACACATGGCATAGTTG, the binding signal (log2 normalized intensity) stood at 1.11. With GAGGAGTGGCCATGATGCCATCTGGTGAAG the figure was -0.987; with CCACAATTACTGAAGTTCCAGAGCCTTCAA, -1.1. Under AGATAGCACCAGCCCATTAATCAAGGCTGC stands -1.07; under TACTTAATGATCTTGGCTGCTTTAGACATG, 0.616. With TTACAAAACAGGTTCTTCCACGACTCCCCC the figure was 3.73; with CCCCTCCTGTCAGTTTATTTACTGTCCTCA, 1.32; with TAACCTTTGACCATCCACGGGTCCATGATT, 4.42. Turning to CCAGCTGGTTTGCCTCTCTTAGGTGACAGC, the binding signal (log2 normalized intensity) was determined as 0.473. Regarding AGGTGAATGTACAAAGGTCAACGGCACAAG, the binding signal (log2 normalized intensity) was 4.49. With GTGTATGTGTGTGTACACATTGATATGTTT the figure was 2.01. Under AGAGCGATCAAAGGTCACAGAGACCACAGG stands 4.83; under TGTGTCGATGTTAACGCTAAAGAGGTATCA, 1.54.

With GCTCCTATCATCCCTATCACTCAAGAAATG, the binding signal (log2 normalized intensity) was determined as 0.99.

TCCTACTTCTGTTTAAACTGATAACCTTGC: the binding signal (log2 normalized intensity) came out at 1.49. As to CTTTATTATCCCAGTAGAGAAACAAATCTG, the binding signal (log2 normalized intensity) amounted to 0.696. Under AGACTCCTGCATATCCTGACTGCTGACCTT stands 3.33. Under GGGGCCTTGCAATGAGGCGACATCAAAGCA stands -1.24. Regarding ATTCCCTCTAATCTGGGACAAGGGGGAGGA, the binding signal (log2 normalized intensity) is -1.13. With GTGTAAACTTTGCAGCAGATAATTACCTGG the figure was -1.1. Under TTCCTTATCTGTAAAATGGACATAGTAACA stands 1.41; under CAGCATAGGGCCACTTTGTCCTTCACTTGT, 1.5. Under AGGGGTTAGGTAAACATTTGTTGAGTGAGT stands 1.27.

With AACCAAATGCACACACAATAAGGACTTTGG, the binding signal (log2 normalized intensity) came out at 3.35. Under AAGTCAATGAGCATTTCACAATTCGTTCAT stands -0.141. With GGTTCCAGCATGGACTTCACAGCCTGTTAG the figure was 0.0676; with ATCAAAGGCCTTCCTATCTCTACTTGCCGA, -1.16. Under TTTGCAGAGGGAAAGCGAGAGAGCCTGGAC stands -1.14. Take ACTAAAGGTTAAACATGTACTCTGTACTCC: the binding signal (log2 normalized intensity) is 2.66. As for TCCCCACCCGGTGTGCGTGGGTGGGAAATC, the binding signal (log2 normalized intensity) was determined as 1.7. Under ATCAAGATCACTGCCTTGGAGGCACTCCCA stands -1.16; under TCAGGTCCAAGGAACCTCACGCGCTCCCTG, -0.989; under AAAAGCCGGGGAAAGGGAAAAAGGGAGATA, -1.18. As for CCTAAACCTGCAAACCTTTGACCTTTCCAT, the binding signal (log2 normalized intensity) was found to be 5.52.

Take GAGGTTCCTGGAACTCTGACCTTTGCCCCC: the binding signal (log2 normalized intensity) was found to be 10.5. Under CAAGAGGACAAGGTTCAAAAGCTACCTGTT stands 1.07; under AAAAGGCCCCAGGGATTGCACAGGATGCCA, -1.15; under AGCTCTTCTGTGCCTCCCAAATGCAAACAG, 1.32. For the sequence CGCTGCTTCCACCAGGGCTAGACCCGTCAG, the binding signal (log2 normalized intensity) was -1.13.

With GAGCCCAGACAAGCATTCTGCTGAAGGAGC, the binding signal (log2 normalized intensity) was -1.13. With TGCCTGGCTCAGCATTCTGAGGGCCTCCAA the figure was -1.02; with AATCGACCTTTAGCACCGTAAGAGAGTATT, 3.82; with GCTGATTGCTCAACCCAAAGCATGTCCAGA, -1.17. With TCCTTTTCTTTCACATACAAAATTTACTTT, the binding signal (log2 normalized intensity) came out at 1.58. CATCATAGTTATTCAGTACAGACTTGTGTA: the binding signal (log2 normalized intensity) is 1.98. Regarding ATGAATACATGAGTGATCCTGAAAACAAAT, the binding signal (log2 normalized intensity) was -1.1.

Consider TACCAGTAGGACCACATTCAATCATGAACA, for which the binding signal (log2 normalized intensity) is -1.08. With TGTGCTGCCCTCTTGTGGCCATTTGGGAAA the figure was 1.34; with TCCACTTCTGAGGAGAAGAATGAAAGCCAA, -1.09. Under AGTGTGTTGACATTTGAACCCAACCGTCCA stands 2.97; under TGCTAAGATGGTCTCAGGTGGAGATAAGGA, 0.439; under GGGAGAAACCTGCCAGGTGGACCAAAACAC, -0.489. Regarding CAGGAAGTTCAGGCCTCGGCTTCATTAGCA, the binding signal (log2 normalized intensity) was -1.17. With CTCTGATTCTCCAGTCCGAAGGTCCACCCG the figure was 3.01; with CTTGTTATATTGGATAGTGCCTTTTCTAAT, 1.13. With TGCGCTGGTTTTATGGTGTCTTATCTTCCT the figure was 1.78; with CTCACAGAGTGGAGTCTTCCGTTTGATAGA, -0.436; with CCGGTTTGGGGACTTCTCCCCAGAGCCTCT, -1.13.

For CTACAGGAGAACAAAGTTCACCTTTCCCTT, the binding signal (log2 normalized intensity) turned out to be 3.1.

CATCTCGTCAAGGTGAAAAGCCTTTTGAAG: the binding signal (log2 normalized intensity) was 0.675.

For the sequence ACGCCCACTGCTTTGTTCCCTGGCTCACTG, the binding signal (log2 normalized intensity) was -1.2.

Take GTTAGAACAAAGTCCAAATTCCTAACTATG: the binding signal (log2 normalized intensity) was determined as 3.04.

For GTCTGGGAAAGCTGCAGGCATGAGAGGTGC, the binding signal (log2 normalized intensity) is -1.09.

TGGGCGAGCCCTCTGATCTGACCCCTTCTT: the binding signal (log2 normalized intensity) came out at 4.91. With GGAACACAAAGAAAGCCAAAGTTCACCCTT the figure was 2.13. For ATGAGGCGGTTCATCCAACAGGTGAGGTGG, the binding signal (log2 normalized intensity) is -0.172. Turning to GACATTCCAGCCTCCAGCTACTCACTCTTC, the binding signal (log2 normalized intensity) is -1.05. With ATATCCTGACTGCTGACCTTTAAGCCTATA the figure was 3.85; with CAACCGGAAGTGGCTAGAGGTCGCGAGAGA, -0.757.
